The list shows a part of the results. At the low end of the ranking the order means little.

The target of this test is SIX1 homeodomain (reference allele) (UniProt Q15475). The test is described as follows: universal protein binding microarray. Particulars: Universal all-10-mer PBM (8x60K, AMADID 030236), 300 nM GST-tagged protein, Alexa Fluor 488 anti-GST; buffer, salt, pH and temperature not stated; high values mean tight binding; most listed sequences are background and not binding sites; double strand, one strand shown.
In the case of CCAGGGAG, the binding signal is -0.0191 E-score.

In the case of CTTAAATA, the binding signal is -0.102 E-score.

Take AGGACGTA: the binding signal was -0.124 E-score.

Take ACATTCTA: the binding signal is -0.223 E-score.

For CGTCCTCC, the binding signal was -0.139 E-score.

As to CGACATTC, the binding signal is -0.124 E-score.

Regarding CGTGTCGA, the binding signal is -0.0256 E-score.

As to GCGACAAA, the binding signal is -0.0995 E-score.

In the case of GTCAAGAA, the binding signal is -0.0764 E-score.

As to TCAAATAA, the binding signal turned out to be 0.0171 E-score.

For the sequence GGGATGGA, the binding signal was determined as 0.15 E-score.

Turning to GTTCATCA, the binding signal is -0.17 E-score.

Regarding ACAGTTGG, the binding signal was -0.202 E-score.

Regarding AATATATA, the binding signal was found to be 0.261 E-score.

Turning to AAGGCCTC, the binding signal was -0.194 E-score.

For the sequence TGAGAGAA, the binding signal is -0.157 E-score.

With CCAGTGAC, the binding signal is -0.00037 E-score.

Consider CGTCGGGC, for which the binding signal was -0.145 E-score.

Turning to TAAGGGGA, the binding signal stood at 0.0412 E-score.

As to GCTTGCTA, the binding signal is -0.194 E-score.

Turning to ACCACTCA, the binding signal was 0.0361 E-score.

In the case of CAAGGAAG, the binding signal was -0.0241 E-score.

CGCGAGAA: the binding signal came out at 0.0298 E-score.

With CTTGCCAA, the binding signal was -0.125 E-score.

Turning to AAGGTGCC, the binding signal was -0.234 E-score.

In the case of CCGTTTGA, the binding signal was 0.0947 E-score.

Take ATTAAACG: the binding signal came to 0.0909 E-score.

As for ACAGCCAG, the binding signal was -0.164 E-score.

Consider GACGAGAC, for which the binding signal is 0.0789 E-score.

In the case of AGAGTCGG, the binding signal was -0.0854 E-score.

Consider GCATGCGC, for which the binding signal is 0.0103 E-score.

Take CTTCGCAC: the binding signal was -0.276 E-score.

Consider CGTATATC, for which the binding signal worked out at 0.336 E-score.

As to ATGGCCGG, the binding signal came out at 0.124 E-score.

Turning to CACGTCCC, the binding signal was -0.148 E-score.

For ACTGATAC, the binding signal was 0.465 E-score.

For ACGCGCCG, the binding signal was determined as 0.026 E-score.

In the case of CACATACG, the binding signal was -0.128 E-score.

As to AGCCGAAG, the binding signal was -0.00144 E-score.

On to CAAGAATG, for which the binding signal was -0.185 E-score.

With CCCTAAAC, the binding signal was -0.176 E-score.

For CAACGCAA, the binding signal was -0.39 E-score.

Consider ACTTAGGA, for which the binding signal is -0.0746 E-score.

As to ATAGACCA, the binding signal worked out at 0.0192 E-score.

On to AGAGTCGC, for which the binding signal was -0.203 E-score.

With ATCCCGTC, the binding signal was 0.267 E-score.

On to GCACGATA, for which the binding signal was 0.325 E-score.

For AAGGGGTA, the binding signal came out at 0.245 E-score.

Consider ACACCTTA, for which the binding signal was 0.238 E-score.

As to ATCAAGTA, the binding signal came to 0.234 E-score.

AACCCGGT: the binding signal was 0.137 E-score.

Take AGAAACTG: the binding signal was -0.149 E-score.

With AACATGGA, the binding signal was -0.112 E-score.

As for AATTGTAC, the binding signal was -0.101 E-score.

On to AAGTCAGA, for which the binding signal was -0.169 E-score.

In the case of CTTTAGAC, the binding signal was -0.0432 E-score.

With ACTAGTTG, the binding signal was -0.228 E-score.

CCCTCCGA: the binding signal came to 0.0672 E-score.

CCAGCTCC: the binding signal was -0.0302 E-score.

On to AACCACAC, for which the binding signal was -0.0933 E-score.

With GGGGATTA, the binding signal was determined as 0.302 E-score.

With GGCTTGGA, the binding signal was -0.0842 E-score.

Take ACCGATCA: the binding signal turned out to be 0.291 E-score.

Turning to TCCTTCAA, the binding signal was -0.114 E-score.

On to AAGCCAGG, for which the binding signal came to 0.00315 E-score.

As for AATAGGAA, the binding signal is -0.0992 E-score.

Consider ATTATTCG, for which the binding signal stood at 0.00454 E-score.

In the case of TAATTTGA, the binding signal is -0.0922 E-score.

In the case of ATTCTGAC, the binding signal was -0.0305 E-score.

Consider GGGCTCAA, for which the binding signal was found to be 0.0305 E-score.

With AGATCTCA, the binding signal came to 0.262 E-score.

For the sequence AACTAGAA, the binding signal is -0.0382 E-score.

As to CCACAACA, the binding signal was -0.093 E-score.

Regarding CGGATTTC, the binding signal was determined as 0.0864 E-score.

Turning to TACACAGA, the binding signal was -0.0145 E-score.

With CTGCTGTA, the binding signal was -0.0753 E-score.

Take CTTCGAGC: the binding signal was -0.108 E-score.

For the sequence AGAGTTCA, the binding signal is -0.32 E-score.

Turning to ACCTCATG, the binding signal was -0.0541 E-score.

Turning to ATAGTAAC, the binding signal was -0.133 E-score.

Consider CGACCGAA, for which the binding signal is -0.113 E-score.

Consider ACAACGGT, for which the binding signal is -0.155 E-score.

CGATTTGC: the binding signal is -0.0936 E-score.

Take AAGAGCAA: the binding signal is -0.0626 E-score.

For GCGGACCA, the binding signal is -0.164 E-score.

As for ACCCGCGG, the binding signal amounted to 0.193 E-score.

Consider GGGAAAGA, for which the binding signal was 0.052 E-score.

As for CACTTCTC, the binding signal stood at 0.0408 E-score.

Turning to GTGATACA, the binding signal was 0.444 E-score.

With ACGGAGTC, the binding signal is -0.186 E-score.

For ATGAACAG, the binding signal is -0.146 E-score.

As for AACAATCA, the binding signal is -0.0794 E-score.

In the case of CATACATC, the binding signal stood at 0.118 E-score.

Regarding CGGCCTAC, the binding signal is -0.165 E-score.

Turning to GCTTAACA, the binding signal is -0.0268 E-score.

As to AGGTAAAT, the binding signal was -0.089 E-score.

Consider CCCACAGA, for which the binding signal turned out to be 0.0121 E-score.

In the case of AAAGTGGA, the binding signal is -0.0711 E-score.

ACAGAGAC: the binding signal came to 0.0886 E-score.

As to CGACGAAA, the binding signal is -0.157 E-score.

With CCTCGCTC, the binding signal is 0.13 E-score.

As for CCGTCCTA, the binding signal is -0.124 E-score.

Turning to CGCATCCG, the binding signal is 0.146 E-score.

For ACTAACAT, the binding signal was -0.0421 E-score.

In the case of TCCTCGAA, the binding signal was 0.0144 E-score.

Regarding CGTCGTAG, the binding signal was -0.158 E-score.

Consider CAGAGCTG, for which the binding signal was -0.0954 E-score.

Regarding ATCGTTCC, the binding signal came to 0.0494 E-score.

In the case of CTCGCAGC, the binding signal was -0.123 E-score.

For the sequence CCGTCACA, the binding signal is -0.181 E-score.

For the sequence TACGCTCA, the binding signal amounted to 0.00225 E-score.

ATAGTCCA: the binding signal turned out to be 0.135 E-score.

Regarding ATGAGCAA, the binding signal is -0.000115 E-score.

Take ATAGGGCC: the binding signal was -0.017 E-score.

Regarding GGAACCAA, the binding signal was -0.121 E-score.

On to CCGTCACC, for which the binding signal was -0.15 E-score.

With ATCTTGGC, the binding signal is -0.102 E-score.

Turning to ATATCTAG, the binding signal was found to be 0.285 E-score.

In the case of ACGGGAAA, the binding signal was -0.148 E-score.

As to CGGGACGC, the binding signal is -0.135 E-score.

Regarding GATGACCA, the binding signal is -0.113 E-score.

For CCTTCTGC, the binding signal is -0.0288 E-score.

Take ATAGGAAT: the binding signal is 0.153 E-score.

As to GTGGCGGA, the binding signal is -0.0347 E-score.

Take ATTCACGG: the binding signal is -0.0161 E-score.

AAAGCCCA: the binding signal was -0.0959 E-score.

For AGGCCGCC, the binding signal is -0.311 E-score.

For the sequence ACAGTTTG, the binding signal was -0.0866 E-score.

As for ACCGACAG, the binding signal is -0.055 E-score.

Regarding CCCACGCA, the binding signal was -0.183 E-score.

Consider GCGAGAGA, for which the binding signal is -0.21 E-score.

For the sequence CTGTACCC, the binding signal is 0.0213 E-score.

On to GTGACAAC, for which the binding signal is -0.0571 E-score.

As for AAGCGTAG, the binding signal is -0.214 E-score.

CGCATTAG: the binding signal is 0.02 E-score.

Consider GACCACCA, for which the binding signal is -0.147 E-score.

For ACCTGGTG, the binding signal was 0.178 E-score.

As to TTAACGAA, the binding signal is -0.127 E-score.

In the case of GCGTAGAA, the binding signal was -0.107 E-score.

For the sequence CCTACAAC, the binding signal is -0.05 E-score.

For GCCCAGCA, the binding signal is -0.162 E-score.

For the sequence GCGGAGAC, the binding signal was -0.0396 E-score.

As to ACATGTTG, the binding signal was found to be 0.152 E-score.

On to ACTGGTCG, for which the binding signal is -0.104 E-score.

In the case of CAGGTCCG, the binding signal amounted to 0.0188 E-score.

Turning to TATTCAGA, the binding signal is 0.126 E-score.

Consider CCGCCCAA, for which the binding signal is -0.0716 E-score.

Take CTGAACCA: the binding signal is -0.0395 E-score.

Consider CCGCGATA, for which the binding signal was found to be 0.411 E-score.

Consider GCCAGAGC, for which the binding signal was -0.218 E-score.

Take ATGATAAT: the binding signal was determined as 0.168 E-score.

In the case of CAGAATCA, the binding signal was -0.0154 E-score.

Take CAAACATC: the binding signal is -0.211 E-score.

CTATAGCC: the binding signal was -0.0739 E-score.

For ACACTAAA, the binding signal is -0.0284 E-score.

Consider ATACCTCG, for which the binding signal stood at 0.342 E-score.

Regarding GTTGTATA, the binding signal was 0.176 E-score.

Regarding GAACGTTA, the binding signal is -0.348 E-score.

In the case of GACTGTAC, the binding signal was -0.155 E-score.

TCACACAA: the binding signal was -0.00967 E-score.

Consider AGACTTAA, for which the binding signal is -0.292 E-score.

With ATGGGCCA, the binding signal is -0.28 E-score.

Consider ATTAGAGC, for which the binding signal was found to be 0.0969 E-score.

With AAGCCGTC, the binding signal is -0.124 E-score.

Take GTCACCCA: the binding signal is -0.165 E-score.

On to GGTCCGAC, for which the binding signal is -0.136 E-score.

Regarding AGAAATGG, the binding signal was -0.203 E-score.

GAAAAGAA: the binding signal is -0.237 E-score.

On to AAGTCGCG, for which the binding signal is -0.12 E-score.

Regarding ATTCTGGC, the binding signal is -0.176 E-score.

As to CGTATTGC, the binding signal came to 0.189 E-score.

For the sequence AACTCTAT, the binding signal is -0.14 E-score.

Source of the values: PMC10668032.
